The text below walks through data of a collection of fitness landscapes (doi:10.1126/science.1257360).

The other results are listed elsewhere or left out. Where only a bound is given, the exact number is not on record here.

To fix the notation:
B1: PhoQ; a variant is named by its letters at X, in order, P23837 (parent)
chain: MKKLLRLFFPLSLRVRFLLATAAVVLVLSLAYGMVALIGYSVSFDKTTFRLLRGESNLFYTLAKWENNKLHVELPENIDKQSPTMTLIYDENGQLLWAQRDVPWLMKMIQPDWLKSNGFHEIEADVNDTSLLLSGDHSIQQQLQEVREDDDDAEMTHSVAVNVYPATSRMPKLTIVVVDTIPVELKSSYMVWSWFIYVLSANLLLVIPLLWVAAWWSLRPIEALAKEVRELEEHNRELLNPATTRELTSLVRNLNRLLKSERERYDKYRTTLTDLTHSLKTPLXXLQXXLRSLRSEKMSVSDAEPVMLEQISRISQQIGYYLHRASMRGGTLLSRELHPVAPLLDNLTSALNKVYQRKGVNISLDISPEISFVGEQNDFVEVMGNVLDNACKYCLEFVEISARQTDEHLYIVVEDDGPGIPLSKREVIFDRGQRVDTLRPGQGVGLAVAREITEQYEGKIVAGESMLGGARMEVIFGRQHSAPKDE

In the assay the parent is B1. As to the kind of experiment: enrichment ratio after two sorts for PhoP signalling (ratio (wild type AVST 3.29)); higher = more functional. The settings on record: with PhoP (E. coli).
Turning to GPAF, the enrichment ratio is not above 0.25.

For the variant RWFN, the enrichment ratio was not above 0.25.

As to TSFS, the enrichment ratio is 4.18.

For the variant EIWL, the enrichment ratio is not above 0.25.

For WAVY, the enrichment ratio is not above 0.25.

On to KDVY, for which the enrichment ratio was not above 0.25.

As to KSKA, the enrichment ratio was not above 0.25.

Turning to YVGH, the enrichment ratio is not above 0.25.

Take IVYE: the enrichment ratio is not above 0.25.

As to MCAP, the enrichment ratio was not above 0.25.

On to MEVG, for which the enrichment ratio amounted to 4.29.

WMTK: the enrichment ratio was not above 0.25.

As for MNDK, the enrichment ratio is not above 0.25.

As to IFCE, the enrichment ratio was not above 0.25.

Take RWDA: the enrichment ratio is not above 0.25.

Take ISVS: the enrichment ratio is not above 0.25.

With GFYC, the enrichment ratio was not above 0.25.

As for NPFN, the enrichment ratio is not above 0.25.

SAMF: the enrichment ratio was 14.8.

Consider PTNN, for which the enrichment ratio was not above 0.25.

For the variant VIKK, the enrichment ratio was not above 0.25.

On to ILAI, for which the enrichment ratio was not above 0.25.

Turning to KMYI, the enrichment ratio is not above 0.25.

Take TVYM: the enrichment ratio stood at 8.79.

MVMW: the enrichment ratio is not above 0.25.

Take VEPP: the enrichment ratio is not above 0.25.

Turning to TRIH, the enrichment ratio was not above 0.25.

As for APDV, the enrichment ratio is not above 0.25.

On to DMNI, for which the enrichment ratio is not above 0.25.

Turning to THTL, the enrichment ratio was 5.01.

On to EYVM, for which the enrichment ratio is not above 0.25.

As for VDVQ, the enrichment ratio is not above 0.25.

Consider LSRK, for which the enrichment ratio was not above 0.25.

Turning to TCCL, the enrichment ratio stood at 13.8.

Turning to KDCR, the enrichment ratio was not above 0.25.

As to RTGE, the enrichment ratio was not above 0.25.

For HQFI, the enrichment ratio is not above 0.25.

Consider NWGE, for which the enrichment ratio is not above 0.25.

Regarding SKQQ, the enrichment ratio was not above 0.25.

As for KEWG, the enrichment ratio was not above 0.25.

As for QPPD, the enrichment ratio is not above 0.25.

For MFYR, the enrichment ratio is not above 0.25.

As for KLQF, the enrichment ratio was not above 0.25.

As for VWSF, the enrichment ratio is not above 0.25.

As for NVLQ, the enrichment ratio was not above 0.25.

On to RIAP, for which the enrichment ratio was not above 0.25.

For YMCR, the enrichment ratio is not above 0.25.

For the variant AEHL, the enrichment ratio was not above 0.25.

Consider LCLG, for which the enrichment ratio is not above 0.25.

AFIA: the enrichment ratio is not above 0.25.

In the case of ADSS, the enrichment ratio is not above 0.25.

On to NKMP, for which the enrichment ratio was not above 0.25.

On to GGTC, for which the enrichment ratio was not above 0.25.

On to LPIV, for which the enrichment ratio was not above 0.25.

Take MEPT: the enrichment ratio was not above 0.25.

Take PMAF: the enrichment ratio was not above 0.25.

Take YSPQ: the enrichment ratio is not above 0.25.

VYQH: the enrichment ratio was not above 0.25.

On to TPSC, for which the enrichment ratio is not above 0.25.

Regarding IEQG, the enrichment ratio is not above 0.25.

In the case of VKTS, the enrichment ratio is not above 0.25.

HHQS: the enrichment ratio is not above 0.25.

Take LMNN: the enrichment ratio was not above 0.25.

As for VADS, the enrichment ratio was not above 0.25.

Take SDSK: the enrichment ratio is not above 0.25.

With QTVY, the enrichment ratio was not above 0.25.

On to SSRN, for which the enrichment ratio is not above 0.25.

On to QRTI, for which the enrichment ratio is not above 0.25.

Consider DNTE, for which the enrichment ratio is not above 0.25.

Regarding GQSI, the enrichment ratio was not above 0.25.

For ANKV, the enrichment ratio is not above 0.25.

As for EKSM, the enrichment ratio was not above 0.25.

FQVQ: the enrichment ratio is not above 0.25.

Consider SQRN, for which the enrichment ratio was not above 0.25.

With NCTC, the enrichment ratio was not above 0.25.

KCFT: the enrichment ratio was not above 0.25.

In the case of RIFG, the enrichment ratio is not above 0.25.

In the case of PIVY, the enrichment ratio was not above 0.25.

With ICLD, the enrichment ratio was not above 0.25.

As to GLFA, the enrichment ratio was not above 0.25.

In the case of MANY, the enrichment ratio is not above 0.25.

As to VWFF, the enrichment ratio is not above 0.25.

As to RRLG, the enrichment ratio is not above 0.25.

Consider DPST, for which the enrichment ratio is not above 0.25.

For the variant LPFA, the enrichment ratio was not above 0.25.

Take RMQG: the enrichment ratio was not above 0.25.

Consider MLWS, for which the enrichment ratio was not above 0.25.

On to TDGE, for which the enrichment ratio is not above 0.25.

Turning to NSAI, the enrichment ratio was determined as 0.375.

On to HIVI, for which the enrichment ratio was not above 0.25.

On to GEPN, for which the enrichment ratio was not above 0.25.

With WYCR, the enrichment ratio was not above 0.25.

Regarding HRRE, the enrichment ratio was not above 0.25.

As to HVWW, the enrichment ratio was not above 0.25.

Regarding KRGW, the enrichment ratio is not above 0.25.

For the variant SDWN, the enrichment ratio was not above 0.25.

For the variant VPND, the enrichment ratio is not above 0.25.

As to DELH, the enrichment ratio is not above 0.25.

As for TGLW, the enrichment ratio was not above 0.25.

In the case of ATRH, the enrichment ratio is not above 0.25.

On to HAMS, for which the enrichment ratio is not above 0.25.

With AGFE, the enrichment ratio is not above 0.25.

HRGP: the enrichment ratio is not above 0.25.

For QMSI, the enrichment ratio stood at 6.25.

On to IVLH, for which the enrichment ratio was not above 0.25.

For FLLH, the enrichment ratio is not above 0.25.

For the variant WSCC, the enrichment ratio was not above 0.25.

Consider TAII, for which the enrichment ratio is not above 0.25.

Take DCWR: the enrichment ratio was not above 0.25.

Regarding GPRF, the enrichment ratio was not above 0.25.

Take AHSF: the enrichment ratio was not above 0.25.

Turning to QCSF, the enrichment ratio came out at 2.45.

Regarding VRVT, the enrichment ratio is not above 0.25.

As for EKTV, the enrichment ratio was not above 0.25.

On to GNFD, for which the enrichment ratio was not above 0.25.

For YVVL, the enrichment ratio was not above 0.25.

In the case of MPGG, the enrichment ratio is not above 0.25.

For EGTM, the enrichment ratio was not above 0.25.

For the variant SHHD, the enrichment ratio is not above 0.25.

In the case of ENMV, the enrichment ratio is not above 0.25.

For the variant GPKW, the enrichment ratio is not above 0.25.

For STVN, the enrichment ratio amounted to 5.2.

Consider YPNC, for which the enrichment ratio is not above 0.25.

For FILE, the enrichment ratio was not above 0.25.

FHWE: the enrichment ratio is not above 0.25.

On to NQLG, for which the enrichment ratio was not above 0.25.

As to SFCK, the enrichment ratio was not above 0.25.

For KHLE, the enrichment ratio was not above 0.25.

Take PDQL: the enrichment ratio was not above 0.25.

With ACSF, the enrichment ratio was 13.3.

Consider KAHH, for which the enrichment ratio was not above 0.25.

In the case of KPWG, the enrichment ratio is not above 0.25.

For the variant PKLL, the enrichment ratio is not above 0.25.

Turning to GPWN, the enrichment ratio was not above 0.25.

For FTIC, the enrichment ratio was not above 0.25.

Take PSYY: the enrichment ratio is not above 0.25.

In the case of TDNH, the enrichment ratio is not above 0.25.

Consider QTYD, for which the enrichment ratio was not above 0.25.

Consider RHEM, for which the enrichment ratio was not above 0.25.

As for IITC, the enrichment ratio was not above 0.25.

Take VYNA: the enrichment ratio is not above 0.25.

On to INTP, for which the enrichment ratio was not above 0.25.

In the case of SSEQ, the enrichment ratio was not above 0.25.

With NWFC, the enrichment ratio was not above 0.25.

Consider DRIS, for which the enrichment ratio is not above 0.25.

YASK: the enrichment ratio was not above 0.25.

MEDR: the enrichment ratio was not above 0.25.

Turning to GGAE, the enrichment ratio is not above 0.25.

Regarding VCFA, the enrichment ratio was not above 0.25.

WPDR: the enrichment ratio was not above 0.25.

Take VLEL: the enrichment ratio was not above 0.25.

For the variant GSAY, the enrichment ratio was not above 0.25.

Take VLVV: the enrichment ratio was not above 0.25.
